± gives the standard deviation of the averaged measurements. Some of the results follow.
System: PfAP2-G AP2 domain (GST-tagged)
Test: gcPBM binding intensity (ln(normalized median fluorescence intensity)); higher = stronger DNA binding
Outline: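 GST-tagged P. falciparum DNA-binding domains produced in E. coli were incubated for 1 h on an Agilent 4 × 180k array of primer-extended double-stranded 36-bp intergenic genomic probes with negative controls. Binding intensity is the highest Masliner-normalised natural-log median intensity across replicate spots of either probe orientation, with bound protein detected by Alexa488 anti-GST antibody at 488 nm.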

| Sequence | gcPBM binding intensity (ln) |
| --- | --- |
| CATACATAAATATAAACATGCATATATTTTTTTTAT [TGCATGCA_site616] | 9.605 ± 0.035 |
| TGATATCTTAAGAAATGTACAAAGATATAACCATTT [XGTACX_site1913] | 10.7 ± 0.31 |
| ATTTTAATAAAATATGTACACACATACACCCATATA [CACACA_site8326] | 11.4 ± 0.96 |
| AAAAAAAAAACACACACATGCACATCATATTATATA [TGCATGCA_site133] | 9.78 ± 0.14 |
| TTATTTTTTCTTCAAATGTGAATTATTCATTTATTT [TGCATGCA_negctrl_site545] | 9.99 ± 0.12 |
| ATAATATGAAACTCGTACGAGGTTGTCCCAAATATA [CACACA_negctrl_site1350] | 10.9 ± 0.56 |
| TTAATACAAATAAAAAGTACAAGTATCGAACTACTA [XGTACX_site6308] | 11.3 ± 0.67 |
| TTTTTAGTAACATATAGTACATATATATATATATGT [XGTACX_site4780] | 10.9 ± 0.64 |
| AAAAAGAATGTGAACACACACATTGAATATAATTTA [CACACA_site1262] | 10.095 ± 0.007 |
| ATATATTATCAACTTACACACAGAAAAATATAATAA [CACACA_site293] | 9.975 ± 0.092 |
| GATATGTAAATAATATGTACATATTTATATTGTATT [XGTACX_site4052] | 11.3 ± 0.88 |
| TTTAAAGGTGATAAAACACACGATTTAGAAATGTAT [CACACA_site3161] | 9.97 ± 0.085 |
| TTAAAAAACATTTGAACATGCAATTGTATATGTAGA [TGCATGCA_site334] | 9.77 ± 0.19 |
| ATATATACCTATATTACACACTTCTTATTCTAAGAA [CACACA_site7421] | 9.865 ± 0.092 |
| ATTGTTACATAAAATGCACACTTTCAAATATGCTAA [CACACA_site5600] | 9.93 ± 0.014 |
| TATTTATTAAGACACACACACACACGCACAAAATAA [CACACA_site6254] | 10.6 ± 0.49 |
| AGGGTTCATATATTAACACACACATACATATTATAT [CACACA_site8959] | 9.99 ± 0.16 |
| TATACACATATATATAGTACATATATAATTTACTAT [XGTACX_site1849] | 10.7 ± 0.42 |
| AGTATTCTAATTTTTAAACACACAAATATAAATAAG [CACACA_site9029] | 9.91 ± 0.12 |
| GCAAAATAACAATGTTACACTTATAAAATTGAGGCA [GTGCAC_negctrl_site68] | 9.925 ± 0.078 |
| ATTTAGAATGTTCCTACACACCAAATTTAAGGGTGC [CACACA_site5320] | 10.02 ± 0.035 |
| TTTTTTTTTCTCCATACACACTTGATAAAACTTTTT [CACACA_site4512] | 10 ± 0.13 |
| ATTTATATTCCAATATGTACATATTTTCGTATAACC [XGTACX_site8507] | 11.3 ± 0.85 |
| ATTACAAATTCTTTCAGTACATATAAAGAAAAAAAT [XGTACX_site7786] | 11 ± 0.67 |

Reference: the supplement of paper PMC11417369
